In PubChem BioAssay AID463173 (ICCB-Longwood Screening Facility, Harvard Medical School, 2010):
Out of some 52,000 compounds screened, about 1,700 (3.3%) were called active. No stated cut-off is given here; in the data, active means survival mostly below about 52% (no sharp cut-off); inactive means mostly above about 56%. The list shows a part of the results.

System: Wild type
Test: growth inhibition of S. aureus wild type versus tarO mutant, primary screen, teichoic acid synthesis inhibitors, RN4220, OD600 (AID 463173)
Conditions: S. aureus RN4220 wild type/DeltatarO growth, OD600, 18 h, hits give low values, screened at 18.75 µg/mL (by protocol)

| SMILES | survival |
| --- | --- |
| Cn1c(=O)n(C/C=C/c2ccccc2)c(=O)c2c1nc1n2CCN1c1ccccc1 | inactive: 114% |
| CCCCOc1ccc(CNC(=O)C2COc3ccc(OC)cc3C2)cc1 (centres undefined) | inactive: 128% |
| CCOc1ccc(C(=O)c2cn(CC(=O)Nc3ccc4c(c3)OCO4)c3ccc(OCC)cc3c2=O)cc1 | inactive: 77% |
| COc1ccc(-n2c(=O)c3c(c4cc(OC)ccc4n3C)n(Cc3cc(C)ccc3C)c2=O)cc1 | inactive: 89% |
| N#Cc1cnc(SCCc2ccccc2)nc1N | inactive: 105% |
| OCc1ccccc1CNc1ccc(F)cc1 | inactive: 106% |
| Cc1ccc(NC(=O)CN2C(=O)COc3ccc(S(=O)(=O)N4CCCCC4)cc32)cc1N(C)C | inactive: 106% |
| COC(=O)c1cccnc1-n1c(=O)c2cccnc2n(CC(=O)Nc2c(C)cc(C)cc2C)c1=O | inactive: 66% |
| CC(=O)N1CCN(c2nc(C3CC3)nc3sc4c(c23)CCCC4)CC1 | inactive: 110% |
| O=C(Cn1ncn2nc(-c3cccs3)cc2c1=O)NCc1cccc(Br)c1 | inactive: 89% |
| Nc1c(C(=O)c2ccc(F)cc2)sc(Nc2ccccc2F)c1S(=O)(=O)c1ccc(Br)cc1 | inactive: 74% |
| Cc1cccc(CNC(=O)c2ccc(NC(=O)N3CC(C)Sc4ccccc43)cc2)c1 (centres undefined) | inactive: 72% |
| CC(C)CN(CCNC(=O)CN1C(=O)CSc2ccc(S(=O)(=O)N3CCOCC3)cc21)CC(C)C | inactive: 68% |
| CCOc1ccc(S(=O)(=O)N(CC(=O)Nc2ccc3c(c2)OCO3)c2ccccc2)cc1 | inactive: 96% |
| Cc1ccc(NC(=O)Cn2c(=O)n(-c3ccccc3)c(=O)c3ccc(C(=O)NCc4ccc5c(c4)OCO5)cc32)c(C)c1 | inactive: 138% |
| COc1ccccc1CNC(=O)c1ccc2c(c1)CCN2S(=O)(=O)c1ccccc1 | inactive: 89% |
| O=C(Nc1c(-c2ccc(F)cc2)nc2ccccn12)c1ccccc1F | inactive: 127% |
| O=C(/C=C\c1ccc2c(c1)OCO2)NC1CC(=O)N(c2cccc(F)c2)C1 (centres undefined) | inactive: 60% |
| CCOC(=O)c1cccc(NC(=O)c2ccc3nc(Cc4ccccc4)oc3c2)c1 | inactive: 69% |
| N#Cc1c2c(c(N3CCOCC3)[nH]c1=S)CCCC2 | inactive: 110% |
| Cc1ccc(-n2c3c(c(=O)[nH]c2=O)C(NC(=O)c2ccccc2C)(C(F)(F)F)C(=O)N3)cc1 (centres undefined) | inactive: 85% |
| COc1ccccc1C(=O)NCCN1CCCC1 | inactive: 111% |
| COc1ccccc1N1CCN(C(=O)CSc2n[nH]c(-c3ccccc3)n2)CC1 | inactive: 63% |
| Cc1cc2ccccc2n1-c1ccc(C(=O)N2CCC(C(=O)NCc3ccccc3Cl)CC2)s1 | inactive: 60% |
